In article PMC4336329 (PLoS ONE, 2015):
Out of some 310,000 compounds screened, about 14,000 (4.5%) showed an effect of 50% or more. Effects have a minus sign here. The list shows a part of the results.

target: human ether-à-go-go-related gene (hERG) potassium channel (human, UniProt Q12809); experiment: primary screen, population patch clamp on CHO cells stably expressing hERG
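Further: peak tail current of the secondary pulse compared with the same well before compound.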

Chain of human ether-à-go-go-related gene (hERG) potassium channel (Q12809 whole entry, looked up): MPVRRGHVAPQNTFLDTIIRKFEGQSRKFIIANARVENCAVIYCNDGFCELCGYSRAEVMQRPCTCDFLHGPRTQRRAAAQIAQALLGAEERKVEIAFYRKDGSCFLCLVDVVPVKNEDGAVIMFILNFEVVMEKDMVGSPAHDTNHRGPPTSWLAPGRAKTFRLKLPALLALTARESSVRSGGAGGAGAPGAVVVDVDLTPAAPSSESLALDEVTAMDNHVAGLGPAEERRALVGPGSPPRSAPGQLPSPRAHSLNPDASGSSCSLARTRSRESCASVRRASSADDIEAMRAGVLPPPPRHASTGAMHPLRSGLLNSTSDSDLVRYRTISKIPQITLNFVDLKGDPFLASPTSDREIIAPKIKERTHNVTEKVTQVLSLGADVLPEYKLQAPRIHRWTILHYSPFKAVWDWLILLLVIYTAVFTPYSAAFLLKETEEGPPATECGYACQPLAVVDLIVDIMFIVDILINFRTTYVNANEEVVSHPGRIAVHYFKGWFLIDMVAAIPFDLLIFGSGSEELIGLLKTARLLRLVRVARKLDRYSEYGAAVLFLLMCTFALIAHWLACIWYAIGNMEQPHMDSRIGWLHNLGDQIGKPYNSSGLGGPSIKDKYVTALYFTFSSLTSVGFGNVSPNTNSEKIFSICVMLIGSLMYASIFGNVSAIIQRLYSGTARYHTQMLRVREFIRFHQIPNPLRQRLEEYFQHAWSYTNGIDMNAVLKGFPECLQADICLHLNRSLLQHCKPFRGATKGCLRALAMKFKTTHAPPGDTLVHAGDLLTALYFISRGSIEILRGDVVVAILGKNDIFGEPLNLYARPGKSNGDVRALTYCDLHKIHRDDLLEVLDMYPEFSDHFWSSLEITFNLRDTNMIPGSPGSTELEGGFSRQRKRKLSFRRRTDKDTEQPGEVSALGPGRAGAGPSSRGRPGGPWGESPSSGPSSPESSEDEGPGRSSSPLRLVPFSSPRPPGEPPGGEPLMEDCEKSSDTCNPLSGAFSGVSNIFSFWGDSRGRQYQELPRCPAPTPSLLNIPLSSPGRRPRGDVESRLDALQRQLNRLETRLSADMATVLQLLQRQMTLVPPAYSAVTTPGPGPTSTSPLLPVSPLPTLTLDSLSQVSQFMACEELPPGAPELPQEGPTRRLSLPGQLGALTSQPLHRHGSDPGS

Compound | hERG current change (%, negative = inhibition) at 10uM [%]
CCC(NC(=O)c1cc(COc2cc(C)c(Cl)c(C)c2)on1)c1ccncc1 (centres unmarked) | 2.85
Cc1cccc(C(=O)NCc2nnc(SCc3ccc(F)cc3)n2C)c1 | -15.1
COc1cc(/C=C/C(=O)N(Cc2ccccc2)c2ccccn2)cc(OC)c1OC | -23.2
COCc1cc(C)nc(SCc2ccc([N+](=O)[O-])cc2)c1C#N | 5.08
COc1ccc(/C=C2/C(=O)NC(=O)N(Cc3ccco3)C2=O)cc1 | 17.6
Cc1ccc2cc(CCNC(=O)c3ccco3)c(=O)[nH]c2c1C | -2.6
CNC(=S)N1N=C(c2ccc(OC)cc2)CC1c1ccccc1Cl (centres unmarked) | 1.24
Cc1cc(C)cc(OC(=O)COc2ccccc2C)c1 | 23.8
CC(=O)N1CCCC1(C(=O)O)c1ccccc1 (centres unmarked) | -1.16
CC(=O)c1nn(-c2cccc(Br)c2)cc1C(=O)c1ccc(Br)cc1 | 12.7
O=S(=O)(NCC1CCCO1)c1ccc(S(=O)(=O)N(Cc2ccc(F)cc2)Cc2ccco2)cc1 (centres unmarked) | -2.49
CCOC(=O)c1cc(-c2ccc(OC)cc2)n(CCC(=O)NC2CCN(Cc3ccccc3)CC2)c1C | -65.7
Cc1nc(C)c(-c2nnc(-c3ccccc3Cl)o2)cc1C(=O)NN | 8.32
CC1CCN(c2ccc(C(=O)NCc3ccco3)cc2[N+](=O)[O-])CC1 | -47.1
O=C(CSCc1ccccc1Cl)Nc1c[nH]c(=O)[nH]c1=O | -2.89
CC(C)=CCCC(C)CN1CCC(n2nccc2NC(=O)c2cccnc2)CC1 (centres unmarked) | -52.1
O=C(CN(c1ccc(F)cc1)S(=O)(=O)c1ccc2c(c1)OCCO2)NCc1ccncc1 | -30.3
CC(OC(=O)/C(C#N)=C/c1ccc(N(C)C)cc1)C(=O)N(C)c1ccccc1 (centres unmarked) | -8.23
CCOC(=O)CNC(=O)CSc1cc(C)nc2ccc(OC)cc12 | 8.11
CCCCNc1nc(C)c(C(C)=O)cc1C#N | 24.1
COc1ccc(C(=O)NC(C(=O)N2CCc3ccccc32)C(C)C)cc1 (centres unmarked) | -0.0963
Cc1nn(-c2ccccc2)c2sc(C(=O)N(Cc3ccco3)C(C)C(=O)NC(C)(C)C)cc12 (centres unmarked) | 2.23

Compound | hERG current change (%, negative = inhibition) at 10uM [%]
CCN(CC)C(=O)c1sc(NC(=O)c2ccoc2C)c(C(=O)OC)c1C | 16
CC(Oc1ccc(Cl)cc1)C(=O)OCC(=O)Nc1ncc(Cl)cc1Cl (centres unmarked) | -6
Cc1cc(C)c(C#N)c(SCc2c(F)cccc2[N+](=O)[O-])n1 | 6.69
Fc1cccc(CN2CCN(c3ccc(Cl)cc3)CC2)c1 | 18
C=C1CCC[C@]2(C)C[C@H]3OC(=O)C(CNC(C)CC)[C@H]3CC12 (some centres unmarked) | 0.523
COc1ccc(C(C(=O)Nc2ccc3c(c2)OCO3)N(C)C(=O)Cc2c[nH]c3ccccc23)cc1 (centres unmarked) | -19
CCOc1ccc(NC(=O)C(CC)NC(=O)c2ccccc2CO)cc1 (centres unmarked) | -0.62
CC(C)CC(NC(N)=O)C(=O)NCc1ccc(Cl)cc1 (centres unmarked) | 5.23
CN(Cc1ccccc1)C(=O)C1CCN(S(C)(=O)=O)CC1 | 16.1
O=C(Nc1ccc([N+](=O)[O-])cc1)Nc1ccc2[nH]c(=O)[nH]c2c1 | -3.77
O=S(=O)(NC1CCCCC1N1CCN(c2cccc(Cl)c2)CC1)c1ccccc1 (centres unmarked) | -4.48
COc1cc(OC)c(C(=O)/C=C/c2ccccc2)c(O)c1O | 8.43
COc1ccc(-n2c(/C=C/c3ccc(O)c(O)c3)nc3ccccc3c2=O)cc1 | 10.6
COCCNc1nc(SCC(=O)N2CCN(c3ccccc3OC)CC2)nc2ccccc12 | -88.6
Cc1cc(NC(=O)COC(=O)COc2ccc3c4c(c(=O)oc3c2)CCC4)no1 | -11
O=C(CSc1nnc(CNC(=O)c2ccco2)o1)c1ccc(Cl)cc1 | -21.2
COCCn1c(SCC(=O)OC(C)C)nnc1-c1ccccc1 | -4.14
Cc1nn(-c2ccccc2)c2nc(-c3cccs3)cc(C(=O)NN)c12 | 25.6
O=C(COc1cccnc1[N+](=O)[O-])Nc1ccc2c(c1)OCO2 | 6.1
O=C(Nc1ccccc1)c1cc(N2CCOCC2)nc2ccccc12 | 1.76
COc1cccc(CNC(=O)c2nnn(CC(=O)Nc3ccc4c(c3)OCO4)c2N)c1 | 6.44
CCn1c(O)c(/C(C)=N/N2CCCCC2c2cccnc2)c(=O)[nH]c1=S (centres unmarked) | -55.2
